Experimental data as given in PubChem BioAssay AID1768 (National Center for Advancing Translational Sciences (NCATS), 2009).
About 620 (0.23%) of roughly 270,000 compounds were called active. The shares of active, inactive and inconclusive entries below differ from those in the screen. Calls come from the whole dose curve; as a rule, active = well fitted inhibition curve with a large enough effect in the polarisation, with a control signal flat (not every such curve was filed as active); inconclusive = small, poorly fitted or top-dose-only effect, or effect the other way, or a change in a side signal; inactive = no such curve, though single readings can be large or run the other way; the % refers to the polarisation. Potencies beside an inconclusive call are fits to weak or partial responses and may not hold up. A note “side channel” means that the fit belongs to a control or component signal, not to the main read-out.

Molecular target: Menin (Homo sapiens) (UniProt O00255)
Sequence of UniProt O00255 (O00255 whole entry, looked up): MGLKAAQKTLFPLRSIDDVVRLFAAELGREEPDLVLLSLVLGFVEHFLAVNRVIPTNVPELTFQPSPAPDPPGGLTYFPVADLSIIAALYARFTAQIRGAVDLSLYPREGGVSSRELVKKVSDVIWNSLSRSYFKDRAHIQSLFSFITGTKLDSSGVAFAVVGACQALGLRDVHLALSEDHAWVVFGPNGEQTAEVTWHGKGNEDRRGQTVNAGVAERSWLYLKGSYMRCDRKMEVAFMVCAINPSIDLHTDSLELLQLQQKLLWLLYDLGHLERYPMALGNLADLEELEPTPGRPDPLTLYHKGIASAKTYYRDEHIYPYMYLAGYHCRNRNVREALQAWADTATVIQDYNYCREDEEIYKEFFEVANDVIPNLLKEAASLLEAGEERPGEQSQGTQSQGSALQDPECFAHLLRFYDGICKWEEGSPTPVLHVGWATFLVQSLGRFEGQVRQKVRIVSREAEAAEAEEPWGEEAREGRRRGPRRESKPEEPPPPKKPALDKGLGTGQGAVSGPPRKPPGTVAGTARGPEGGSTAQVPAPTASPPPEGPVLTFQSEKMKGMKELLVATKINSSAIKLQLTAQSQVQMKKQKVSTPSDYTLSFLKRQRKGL
Experiment: qHTS Assay for Inhibitors Targeting the Menin-MLL Interaction in MLL Related Leukemias: Competition With Texas Red Labeled MLL-derived Mutant Peptide
Conditions: fluorescence polarization; series mostly up to 61.6 µM
Potency is the fitted concentration of half-maximal effect; tags give direction and shape of the fitted curve or compound fluorescence and quenching.

Structure (SMILES) | Potency
COC(=O)C1CSC(c2ccc(Cl)cc2)N1C(=O)c1ccccc1 (stereo not given) | inconclusive: 17.8 µM [fluorescent, side channel, partial curve]
CCOC(=O)CSc1nc2c(sc(=S)n2-c2ccc(CC)cc2)c(=O)[nH]1 | inconclusive: 17.8 µM [quencher, side channel, partial curve]
COc1ccc(-n2nc(C(=O)NCC(=O)NCCCN3CCCCCC3)c3ccccc3c2=O)cc1Cl | inconclusive: 1.41 µM [fluorescent, side channel, full curve, poor fit]
Cc1ccc(SC(C)C(=O)Nc2ccccc2-c2ccccc2)cc1 (stereo not given) | inconclusive: 28.2 µM [fluorescent, side channel, single point]
CCOC(=O)c1c(/N=C/N(C)C)sc(/C=N/Nc2ccccc2)c1-c1ccccc1 | inconclusive: 10 µM [quencher, side channel, partial curve]
Cc1cccc(-c2nc(CN3CCCC(C(=O)NC4CCCCC4)C3)c(C)o2)c1 (stereo not given) | inconclusive: 2.82 µM [fluorescent, side channel, partial curve]
COc1ccccc1NC(=O)c1ccc2[nH]c(C)c(C)c2c1 | inconclusive: 20 µM [quencher, partial curve, poor fit]
Clc1ccc(CN2CCc3c([nH]c4ccccc34)C2)cc1Cl | inconclusive: 28.2 µM [quencher, side channel, single point]
CCOc1ccc(N(CC(=O)N/N=C/c2ccc(OC(C)C)cc2)S(C)(=O)=O)cc1 | inactive
Cc1c(O)cccc1C(=O)N[C@@H](CSc1ccccc1)[C@H](O)CN1C[C@H]2CCCC[C@H]2C[C@H]1C(=O)NC(C)(C)C | inconclusive: 8.91 µM [inhibitor, single point]
Cc1ccc2c(nc3s/c(=C\c4ccc(-c5ccccc5C(=O)O)o4)c(=O)n32)c1C | inconclusive: 2.82 µM [quencher, side channel, full curve, poor fit]
Cn1cccc1CNCc1ccccc1Cl | inconclusive: 39.8 µM [inhibitor, single point]
CCOc1ccc(-c2cn(-c3ccccc3OC)c(=S)[nH]2)cc1 | inconclusive: 44.7 µM [inhibitor, partial curve, poor fit]
CCC1CCCCN1C(=O)CSc1nc(N)cc(=O)[nH]1 (stereo not given) | inconclusive: 44.7 µM [inhibitor, single point]
Cc1ccc(NC(=O)NC(=O)N(C2CCCCC2)S(=O)(=O)c2ccccc2)cc1 | inconclusive: 28.2 µM [quencher, side channel, single point]
Cc1cc(C)n(S(=O)(=O)c2ccc(Cl)cc2)n1 | inconclusive: 10 µM [quencher, side channel, partial curve]
COc1cc(NC(=O)c2cc(C)no2)cc(OC)c1OC | inconclusive: 7.94 µM [fluorescent, side channel, full curve]
CCOc1ccc(N2C(=O)C(CC(=O)Nc3ccccc3)N(Cc3ccccn3)C2=S)cc1 (stereo not given) | inconclusive: 25.1 µM [quencher, side channel, partial curve]

Structure (SMILES) | Potency
COc1ccc(CC(=O)N(Cc2ccccc2)c2ccccc2)cc1S(=O)(=O)N1CCOCC1 | inconclusive: 1.78 µM [inhibitor, full curve, poor fit]
O=C(O)/C(CC(=O)c1ccc(Cl)cc1)=N/Nc1ccc([N+](=O)[O-])cc1[N+](=O)[O-] | inconclusive: 39.8 µM [quencher, side channel, single point]
O=C(Nn1c(C2CCCCC2)nc2ccccc2c1=O)c1cc(Cl)ccc1[N+](=O)[O-] | inconclusive: 39.8 µM [quencher, side channel, single point]
CCOC(=O)c1[nH]c(C)c(C(=O)OCC(=O)N2CCc3ccccc32)c1C | inconclusive: 35.5 µM [fluorescent, side channel, single point]
COC(=O)Cn1c(=NC(=O)c2cc(-c3cccs3)nc3ccccc23)sc2cc(S(N)(=O)=O)ccc21 | inconclusive: 5.01 µM [quencher, side channel, full curve, poor fit]
O=C(Nc1cccc2ccccc12)N1CCN(c2ccc(F)cc2)CC1 | inactive
O=[N+]([O-])c1ccc(S(=O)(=O)N/N=C/c2ccc3c(c2)OCO3)cc1 | inconclusive: 25.1 µM [quencher, side channel, single point]
Cc1nnsc1NC(=O)OCc1ccc(C(F)(F)F)cc1 | inconclusive: 39.8 µM [inhibitor, single point]
Cc1onc(-c2c(F)cccc2Cl)c1C(=O)N(Cc1ccccc1)C(C)C | inconclusive: 14.1 µM [fluorescent, side channel, partial curve]
COc1ccc(NC(=O)c2cc(C(=O)Nc3ccc(OC)cc3OC)cc([N+](=O)[O-])c2)c(OC)c1 | inconclusive: 15.8 µM [quencher, side channel, single point]
CCOC(=O)CCCCC(=O)c1[nH]c(=O)[nH]c1Cn1cnc2ccccc21 | inconclusive: 10 µM [inhibitor, partial curve]
CSc1c(C#N)c(N)c(C#N)c2c1COC(C)(C)C2 | inactive
CN(C)S(=O)(=O)c1cccc(C(=O)Nc2cc(Cl)cc(Cl)c2)c1 | inconclusive: 12.6 µM [quencher, side channel, partial curve]
CCN(CC)S(=O)(=O)c1cccc(NC(=O)COC(=O)CCc2nc3ccccc3s2)c1 | inconclusive: 1.26 µM [inhibitor, full curve, poor fit]
COc1cccc(C(=O)N(Cc2cc3cc(C)ccc3[nH]c2=O)C(C)C)c1 | inconclusive: 20 µM [inhibitor, partial curve]
CC(C)=CCC/C(C)=C/CC(C)(C)CNCCN1CCNCC1 | inconclusive: 25.1 µM [fluorescent, side channel, single point]
COc1ccc(-c2cc(C(=O)OCC(=O)c3ccc(C)c([N+](=O)[O-])c3)c3ccccc3n2)cc1 | inconclusive: 6.31 µM [quencher, side channel, full curve]
